From PubChem BioAssay AID1745853 (National Center for Advancing Translational Sciences (NCATS), 2022)
Several values for one entry are separate records, joined by “and”; a condition that tells them apart may be missing. Identical values can stand only once. This is one part of the list. Further columns of the screen follow, without active or inactive calls.

Legend:
Assay in all cases: Primary Screen for Target Class Profiling of Small Molecule Inhibitors of Methyltransferases
[1] = molecular target: Glycine N-methyltransferase (Homo sapiens) (UniProt Q14749); details: purified enzyme, MTase-Glo SAH luminescence; measured here: GNMT inhibition; at 40 µM; stronger effect = lower value
Outline: (§1)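 Each enzyme was assayed with SAM and its substrate. SAH formation detected by MTase-Glo luminescence; single-point 40 uM screen[…].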

[2] = molecular target: Guanidinoacetate N-methyltransferase (Homo sapiens) (UniProt Q14353); details: purified enzyme, MTase-Glo SAH luminescence; measured here: GAMT inhibition; at 40 µM; stronger effect = lower value
Outline: as §1

[3] = molecular target: Histamine N-methyltransferase (Homo sapiens) (UniProt P50135); details: purified enzyme, MTase-Glo SAH luminescence; measured here: HNMT inhibition; at 40 µM; stronger effect = lower value
Outline: as §1

[4] = molecular target: Nicotinamide N-methyltransferase (Homo sapiens) (UniProt P40261); details: purified enzyme, MTase-Glo SAH luminescence; measured here: NNMT inhibition; at 40 µM; stronger effect = lower value
Outline: as §1

[5] = molecular target: Phenylethanolamine N-methyltransferase (Homo sapiens) (UniProt P11086); details: purified enzyme, MTase-Glo SAH luminescence; measured here: PNMT inhibition; at 40 µM; stronger effect = lower value
Outline: as §1
On the % scale 0 is the no-effect control and ±100 the full control effect.

Compound | activity change, negative = inhibition [1] [%] | activity change, negative = inhibition [2] | activity change, negative = inhibition [3] [%] | activity change, negative = inhibition [4] | activity change, negative = inhibition [5]
CC(C)(O)C1CC=C(C(=O)OC[C@H]2O[C@@H](Oc3cc(C(=O)O)cc(O)c3O)[C@H](O)[C@@H](O)[C@@H]2O)CC1 (stereo partly drawn) | 0 | 5.2% | 2.54 | -9.37% | 4.49%
CC1CCN(C(c2ccc(F)cc2)c2ccc(C(C)C(=O)O)cc2-c2ccc(C(F)(F)F)cc2)CC1 (stereo not drawn) | -11.2 | -4.78% | 6.34 | -78.1% | -4.67%
O=C1CCCC2=C1C1(CCCC1)N=C(Nc1nc3ccccc3o1)N2 | – | -6.8% | – | -19.4% | -7.3%
Cc1ccc(-n2nc(C)c([C@H]3C=C[C@@H](OC(=O)Nc4ccc(C(C)C)cc4)C3)c2C)cc1Cl | -4.17 | -7.67% | -2.05 | -5.72% | -6.71%
CN(C)S(=O)(=O)N1C[C@@H](Oc2cccnc2)C[C@H]1C(=O)N1CCOCC1 | -6.27 | -3.72% | -0.717 | -5.93% | -5.09%
Cc1cc(-c2nncc3c(C(C)(C)C)c(OCc4ncnn4C)nn23)no1 | -4.95 | 4.95% | -1.84 | -13.6% | -0.181%
c1ccc(N2CCCC(c3nccn3Cc3ccncc3)C2)nc1 (stereo not drawn) | -3.42 | -2.29% | 1.92 | -7.7% | -4.18%
O=C(O)c1ccnc(-c2ccnc(NCC(O)c3ccccc3Cl)n2)c1 (stereo not drawn) | -6.74 | -9.27% | -10.2 | -11.7% | -14.7%
O=C(CSc1nnc2n(CCc3ccccc3)c(=O)c3ccccc3n12)NC1CCCCC1 | -1.21 | 0% | 4.8 | -11.8% | 0.199%
CC1CCC(NC(=O)C2(C)Cn3c(cc4occc43)C(=O)N2Cc2cccc(Br)c2)CC1 (stereo not drawn) | -0.694 | 0.152% | 5.76 | -8.19% | 2.34%
CC1=CC(=O)CC(C)(C)[C@@]1(O)/C=C/C(C)O[C@@H]1O[C@H](CO)[C@@H](O)[C@H](O)[C@H]1O (stereo partly drawn) | 3.65 | 10.6% | 12.1 | -2.18% | 8.86%
Cc1cc(N2CCN(Cc3nnc(C4CC(N)C4)n3C)CC2)cc(C)n1 (stereo not drawn) | -5.34 | -9.9% | -15 | -7.05% | -7.59%
COc1ccccc1-c1nnc2ccc(C(=O)N3CCN(C(C)=O)CC3)cn12 | -3.17 | -5.85% | 0.13 | -7.85% | -6.43%
CCCS(=O)(=O)N1CC(Oc2ccccc2-c2noc(C)n2)C1 | -5.61 | -0.6% | -1.44 | -0.086% | -1.47%
C[C@@H]1C[C@@H](O)[C@@]23CO[C@]2(CO)CCC[C@@H]3[C@@]12C[C@@H](c1ccoc1)OC2=O | -0.702 | 0.045% | -5.57 | -14.9% | 1.33%
CCOc1c2c(c(OCC)c3ccccc13)C(=O)N(c1ccc(CC(=O)NS(=O)(=O)c3ccccc3)cc1)C2 | -16.5 | 0.933% | 9.01 | -25.6% | -9.98%
CCCN1C(=O)c2c(C(=O)N(C)Cc3ccccc3)ncn2CC1(C)C(=O)NCc1ccc(C)cc1 (stereo not drawn) | -1.33 | 0% | 4.09 | 3.34% | 3.25%
CCC(C)NC(=O)c1ccc2c(=O)n(CCC(C)C)c3nn(Cc4ccccc4F)c(=O)n3c2c1 (stereo not drawn) | -10.1 | 0.223% | -2.87 | -13.5% | -5.46%
CCCCc1nc(Cl)c(CO)n1Cc1ccc(-c2ccccc2-c2nn[nH]n2)cc1 | – | -2.38% | – | -21.9% | 2.09%
CCc1ccc(N2C(=O)c3cc(-c4ccc(OC)cc4)nn3CC2(C)C(=O)NCc2ccccc2)cc1 (stereo not drawn) | 3.2 | 0% | 6.04 | 4.25% | -1.69%

Compound | activity change, negative = inhibition [1] [%] | activity change, negative = inhibition [2] | activity change, negative = inhibition [3] [%] | activity change, negative = inhibition [4] | activity change, negative = inhibition [5]
CC(C)Cn1c(=O)c2ccccc2n2c(-c3ccc(Br)cc3)nnc12 | 0.282 | 0% | 2.45 | 0.73% | -4.23%
Cc1ccc(C(C(=O)NCc2c(C)n[nH]c2C)N(C)C)cc1 (stereo not drawn) | -5.16 | -2.61% | -1.92 | -7.27% | -1.2%
CCOc1ccccc1CN1C(=O)c2nc3ccccc3n2CC1(C)C(=O)NC1CCCC1 (stereo not drawn) | -0.113 | 4.75% | 0.471 | 0.299% | -3.99%
CN1C2CC(OC(=O)[C@H](CO)c3ccccc3)CC1C1OC12 (stereo partly drawn) | 5.93 | 12.7% | 6.24 | -1.45% | 8.7%
COC(=O)C1=CO[C@@H](O[C@@H]2O[C@H](CO)[C@@H](O)[C@H](O)[C@H]2O)[C@@H]2[C@@H](C)[C@@H](O)C[C@H]12 | 2.64 | 2.96% and 7.42% | 9.09 | -7.8% and -6.84% | 0.459% and 7.92%
O=C(CCc1nnc2n(Cc3ccc(F)cc3)c(=O)c3ccccc3n12)N1CCN(c2cccc(Cl)c2)CC1 | 1.04 | 0% | 6.1 | 1.17% | -1.53%
CCOC(=O)C1CCCN(C(=O)C2CC(c3ccc(CC)cc3)CN(C(C)=O)C2)C1 (stereo not drawn) | -5.45 | 0.813% | 1.35 | -3.55% | 0.573%
CC[C@H]1CN(S(=O)(=O)c2ccc(OC)cc2)CC[C@H]1CC(=O)NCc1cccnc1 | -4.51 | -1.92% | -1.08 | 3.62% | -1.74%
Cc1cccc(-c2[nH]c(Cc3cccc(C(N)=O)c3)nc2-c2ccc3nccnc3c2)n1 | -1.02 | -3.54% | 4.91 | -34.5% | 0.929%
COc1ccc(-c2cc3n(n2)CC(C)(C(=O)NCc2ccccc2OC)N(Cc2ccccc2)C3=O)cc1 (stereo not drawn) | 5.11 | 0% | 5.67 | 7.13% | 2.12%
O=c1oc(Cl)c(Cl)c2ccccc12 | -5.05 | 8.31% | 3.85 | -4.67% | 5.27%
CC(C)c1ccc(CNC(=O)c2ccc3c(=O)nc4c(-c5ccccc5)n[nH]n4c3c2)cc1 | -3.54 | 0.569% | -6.56 | -2.99% | -1.2%
COc1ccc(-c2n[nH]n3c2nc(=O)c2ccc(C(=O)NC4CC4)cc23)cc1 | -1.49 | 3.92% | 4.56 | 3.58% | -0.884%
Cc1ccc(N2CCN(C(=O)c3noc(-c4ccc[nH]c4=O)n3)CC2)cc1 | -9.51 | -2.8% | 0.793 | -5.2% | 0.012%
O=C(Nc1cccc(Cl)c1)[C@@H]1C[C@H](c2ccc(F)cc2)N([S+](=O)([O-])C2CC2)C1 | -12.2 | -0.575% | -3.48 | -7.05% | -1.42%
O=C(/C=C/c1ccc(O)cc1)OC[C@H]1O[C@@H](O/C(=C\c2ccccc2)C(=O)O)[C@H](O)[C@@H](O)[C@@H]1O | 2.29 | 7.7% | 6.98 | -5.81% | 7.1%
COc1ccc(F)cc1S(=O)(=O)N1C[C@@H](C(N)=O)[C@H](C2CCN(C)CC2)C1 | -1.02 | -4.29% | -5.51 | -10.6% | 1.34%
CCC(C)NC(=O)c1ccc2c(=O)n(C)c3nn(Cc4ccc(N5CCCC5=O)cc4)c(=O)n3c2c1 (stereo not drawn) | 4.35 | 0.412% | 1.96 | 2.56% | 6.57%
CC(C)CCNC(=O)C1(C)Cn2c(ccc2-c2ccco2)C(=O)N1Cc1ccc(Cl)cc1 (stereo not drawn) | -3.46 | 0% | 7 | -2.46% | 1.61%
CN(C)CC(=O)N1CCn2c3c(c4cc(C5CCCCC5)ccc42)CCCC31 (stereo not drawn) | -15.1 | 0.619% | -20.1 | 9.7% | 0.753%

Compound | activity change, negative = inhibition [1] [%] | activity change, negative = inhibition [2] | activity change, negative = inhibition [3] [%] | activity change, negative = inhibition [4] | activity change, negative = inhibition [5]
Cc1nnc(C(C)C)n1C1CC2CCC(C1)N2CCC(NC(=O)C1CCC(F)(F)CC1)c1ccccc1 (stereo not drawn) | 5.35 | – | 14.5 | – | –
CCC(C)/C=C(C)/C=C/C(=O)C1CCC(O)C(C)(O)C1=O (stereo not drawn) | 4.34 | 8.34% | 5.38 | -7.25% | 4.93%
O=C(C1=CCN2c3c(cccc31)OC[C@H]2CN1CCOCC1)c1cccc2ccccc12 | -1.31 | -10.9% | 5.2 | -31.4% | 0.374%
CC(C)C(NC(=O)c1ccc2ccccc2n1)C(=O)NC(CC(=O)O)C(=O)COc1c(F)cccc1F (stereo not drawn) | 3.74 | 1.37% | 13.1 | -6.14% | 6.86%
O=C(c1ccc(F)cc1)N1CCC(N2CCCCCC2=O)CC1 | -5.55 | -6.54% | -3.73 | -9.96% | -5.16%
COc1ccc(N2CC3CCC(C2)N3Cc2cccc(Cl)c2)cc1 | -3 | 0.32% | -7.33 | 2% | -0.833%
CCCN1C(=O)c2cc(C(=O)NCc3ccccc3Cl)nn2CC1(C)C(=O)NC1CCCC1 (stereo not drawn) | 0.154 | 5.74% | -10.8 | 1.48% | -3.25%
C[C@H]1CC[C@H]2[C@@H](C=C[C@@](C)(O)[C@]2(C)C(=O)CCO)C1 | 1.31 | 10% | 7.59 | -6.27% | 1.55%
CCN1CCN(CCNC(=O)CCn2ccc3cc(S(=O)(=O)N4CCCCC4)ccc32)CC1 | 2.08 | 3.12% | -6.54 | -1.08% | -1.25%
O[C@@H]1CC(CNCc2ccc(F)cc2)(COc2cccnc2)C[C@@H]1O (stereo partly drawn) | -4.37 | -2.92% | -3.05 | -0.98% | 18.5%
O=S(=O)(N[C@H]1[C@H](O)[C@H](O)C[C@@H]1c1cncnc1)c1ccc(Cl)cc1 | -7.82 | -8.45% | -4.99 | -13.7% | -15.2%
CN(C(=O)C1(N)CC1)C1CCCN(CCCc2ccccc2)C1 (stereo not drawn) | -6.58 | -8.48% | -3.23 | -10.5% | -11.4%
Fc1ccccc1-c1nc2ccn(Cc3ccc(-c4ccc(C(F)(F)F)cc4C(F)(F)F)nn3)cc-2n1 | 1.32 | 9.37% | 9.71 | -20.4% | -0.341%
COc1cccc(CNC(=O)c2cc3n(n2)CC(C)(C(=O)NC2CCCCCC2)N(C)C3=O)c1OC (stereo not drawn) | 2.77 | 3.25% | -2.26 | 2.37% | -1.35%
C[C@@H]1O[C@@H](OC[C@H]2O[C@@H](OC(CCCCc3ccc(O)cc3)CCc3ccc(O)cc3)[C@H](O)[C@@H](O)[C@@H]2O)[C@H](O)[C@H](O)[C@H]1O (stereo partly drawn) | -0.666 | -8.62% | 0.594 | -16.6% | -0.281%
COc1ccc([C@@]2(O)c3c(ccc(CC=C(C)C)c3O)NC(=O)[C@@H]2OC)cc1 | 0 | 1.08% | 1.66 | -13.9% | 6.42%
O=C(CCc1nnc2n(Cc3ccccc3)c(=O)c3ccccc3n12)Nc1cccc(Cl)c1 | -6.66 | -0.541% | -4.75 | -4.49% | -5.62%
COc1ccc(NC(=O)Cn2nc3n(Cc4ccccc4)c(=O)c4ccccc4n3c2=O)cc1 | 8.08 | 1.9% | 8.56 | 6.2% | 6.97%
